The text below walks through data of the supplement of paper PMC10986608.

This is one part of the list. Most values come without repeats; read them as rough.

The experiment relates to Candida albicans DPL-15. As to the kind of experiment: growth (OD600) after compound treatment (apparently relative to screen median) (relative growth (fraction; screen median 1.02)); DPL-15 is a caspofungin-resistant clinical isolate; higher = more fungal growth (less antifungal activity). To be noted: 25 µM; RPMI 1640; 48 h; 30 °C.
For the molecule `COC(=O)C1=C(C)N(C)C(NCCCOC(C)C)=NC1c1ccc(Cl)cc1` (stereo not given), the growth is 0.999. Consider `C#CCC(C)(C)CNC(=O)CC1(CNC(=O)c2cccc3cnnn23)CCCCC1`, for which the growth is 1.07. Then `CC1=C[C@@]2(CCCO)c3cc4c(cc3CC[C@@]2(C)[C@@H]1C)[nH]c1ccccc14`, with 1.02. For the molecule `CC(C)Cc1n[nH]c2c1C(c1ccccc1Br)N(c1ccc3c(c1)OCO3)C2=O` (stereo not given), the growth was 1.06. For the molecule `COc1ccc(OC[C@@H]2C=C(C)C[C@]3(O2)C(=O)N(Cc2ccccc2)c2ccccc23)cc1`, the growth was 0.868. For the molecule `COC(=O)[C@]1([C@@H]2OC(=O)C[C@@H]2C)CC(=O)c2c(O)cccc2O1`, the growth worked out at 1.08.

For `CO[C@@H]1[C@H](O)CC[C@]2(O)CN(Cc3ccc4c(c3)OCO4)[C@](C)([C@H](O)CC=C(C)C)[C@@H]12`, the growth worked out at 1.13. In the case of `CC(=O)C1=C(C)N(Cc2ccc(F)cc2)C(=S)NC1c1ccc(Br)cc1` (stereo not given) it was 0.955; in that of `CCOC(=O)/C=C/NC(=O)c1ccccc1`, 0.836. Consider `COC(=O)c1cc2c(c3c4cc(OC)ccc4n(S(=O)(=O)c4cccc(C)c4)c13)C(=O)N(Cc1ccc(C)cc1)C2`, for which the growth was 1.01. Take `COc1ccc(N2C(=O)C3=C(C(C(C)C)=NCCN3)C2c2cccc(C(F)(F)F)c2)cc1` (stereo not given): the growth amounted to 1.02. Turning to `FC(F)(F)c1cc(C(F)(F)F)c2c3c([nH]c2c1)CCCC3`, the growth amounted to 1.08.

As to `COc1ccc(N2C(=O)C3=C(C(CC(C)C)=NCCN3)C2c2ccc(Br)cc2)cc1` (stereo not given), the growth was determined as 0.959. As for `COc1cccc2c(=O)c3cccc(C(=O)Nc4ccc(CC(=O)N5Cc6ccccc6C5)cc4)c3[nH]c12`, the growth amounted to 1.25. In the case of `C/C=C/[C@H]1CC(=O)c2c(O)c(C)c(O)c(C)c2[C@]12C(=O)C=C(C)OC2=O` it was 0.907; in that of `COc1ccc2c(c1)C(=O)[C@@H](CCCO)[C@@H]2c1ccccc1`, 0.741. In the case of `CS(=O)(=O)Oc1c(CC23CCCCC2=Nc2ccc(Cl)cc23)occc1=O` (stereo not given) it was 1.2; in that of `C[C@H]1C=CCCO[C@@H]1c1ccc(-n2ccnc2)cc1`, 0.745; in that of `O=C1OC[C@H](Cc2ccc3c(c2)OCO3)[C@H]1Cc1ccc2c(c1)OCO2`, 0.979. Consider `COc1cc(CC=C(C)C)c2c(=O)c3ccccc3[nH]c2c1O`, for which the growth came to 0.782. Turning to `O=C1CCCC=C1[C@@H](O)CCOC(c1ccccc1)(c1ccccc1)c1ccccc1`, the growth amounted to 0.972. Then `CC(C)Cc1n[nH]c2c1C(c1cccc(C(F)(F)F)c1)N(c1ccc(N(C)C)cc1)C2=O` (stereo not given), with 1.12; and `CC(=O)C1=C(C)N(Cc2ccccc2)C(=O)N[C@H]1c1ccc(Br)cc1`, with 0.854; and `CCCCCOS(=O)(=O)Nc1ccc(C(F)(F)F)cc1`, with 1.11. In the case of `CN1CCN=C(c2ccccc2)C2=C1C(=O)NC2c1cccc(C(F)(F)F)c1` (stereo not given) it was 0.897; in that of `CC(C)[C@]12OC3=C(C(=O)C(C)(C)C(=O)C3(C)C)[C@H]1CC1(CCCCC1)O2`, 1; in that of `COc1ccc(N2C(=O)C3=C(C(CC(C)C)=NCCN3)C2c2ccc(F)cc2)cc1` (stereo not given), 0.991.

For `COc1ccc(Cn2ncc(C(C)C)c2N)cc1`, the growth was found to be 1.08. Then `COc1ccc2c(c1)O[C@@H](c1cccc(C(F)(F)F)c1)[C@H](O)C2=O`, with 0.714; and `C=CCN1C(=O)C2=C(C(C)=NCCN2)C1c1cccc(C(F)(F)F)c1` (stereo not given), with 1.03.

On to `COc1cc(CC=C(C)C)c2c(=O)c3cc(F)c(F)cc3oc2c1O`, for which the growth was found to be 1.14. With `C[C@@H]1/C=C/CC(=O)OCCCCC(=O)N[C@@H]1c1cccc(Br)c1`, the growth came out at 1.08.

Consider `CC1=CC[C@@H](COc2ccccc2)O[C@@]2(C1)C(=O)Nc1cccc(Br)c12`, for which the growth came to 1.11. Regarding `COC(=O)N[C@H](CC(C)=O)c1ccccc1`, the growth is 1.02. In the case of `CO[C@@H]1[C@H](O)CC[C@]2(O)CN(c3ccc4ncoc4c3)[C@](C)([C@H](O)CC=C(C)C)[C@@H]12`, the growth was found to be 0.911. In the case of `COc1cccc(CN(C)C[C@@H]2CCCN(CCc3ccccc3C)C2)c1` it was 0.994; in that of `NS(=O)(=O)N1CCOCC1`, 1.01. Then `COC(=O)c1[nH]c2ccccc2c1[C@]12CCN(C(=O)Cc3c(F)cccc3F)[C@H]1Nc1ccccc12`, with 1.05; and `C=C(C)[C@@H]1[C@H](c2cc(OC)c(O)c3oc4c(c(=O)c23)CCCC4)C=C(C)C[C@H]1c1cc(OC)c(O)c2oc3c(c(=O)c12)CCCC3`, with 1.16. In the case of `CC(=O)C1=C2C=CCCN2C(=O)NC1c1cccc(F)c1F` (stereo not given) it was 1.01; in that of `COc1ccc([C@@]23Oc4cc(OC)c(F)c(OC)c4[C@]2(O)c2nc4n(c(=O)c2[C@H]3c2ccccc2)CCC4)cc1`, 1.15; in that of `CO[C@@H]1[C@H](O)CC[C@]2(O)CN(c3ccc(Oc4ccccc4)cc3)[C@@H](CC=C(C)C)[C@](C)(O)[C@@H]12`, 0.794. For the molecule `COc1ccc(N2C(=O)c3[nH]nc(CC(C)C)c3C2c2ccccc2Br)cn1` (stereo not given), the growth worked out at 1.03. Regarding `COC(=O)c1cc2cc3c(cc2c(-c2ccc(OC)cc2)c1C(=O)OC)OCO3`, the growth turned out to be 0.944. For the molecule `COc1ccc([C@@]23Oc4cc(OC)cc(OC)c4[C@]2(O)c2nc(C4CC4)[nH]c(=O)c2[C@H]3c2ccccc2)cc1`, the growth was determined as 1.02. In the case of `CCOC(=O)CN1C(=O)N[C@@H](c2cccc(F)c2)C(C(=O)OC)=C1C` it was 0.967; in that of `CC(C)Cc1nn(Cc2ccccc2)c2c1C(c1ccccc1)NC2=O` (stereo not given), 1.01; in that of `C=CCC1=C2OC(C)(C)[C@@H](CC=C)C[C@]23C[C@@H](CC=C)C(C)(C)[C@](C(=O)c2ccccc2)(C1=O)C3=O`, 0.991. In the case of `CC(=O)OC[C@H]1O[C@H](c2ccc(F)cc2)C=C[C@@H]1OC(C)=O`, the growth is 0.925.

Consider `c1ccc([C@H]2c3cc4c(cc3O[C@H]3c5ccccc5C[C@@H]23)OCO4)cc1`, for which the growth amounted to 1.13. Regarding `Cc1n[nH]c2c1COC[C@H](c1ccccc1)NC(=O)CC1(CCCCC1)CNC(=O)c1cccc-2c1`, the growth worked out at 1.02. On to `CC(C)Cc1n[nH]c2c1C(c1ccc(F)cc1)N(Cc1ccccc1)C2=O` (stereo not given), for which the growth worked out at 1.02. On to `CO[C@@H]1[C@H](O)CC[C@]2(O)CN([C@@H](C)c3ccccc3)[C@@H](CC=C(C)C)[C@](C)(O)[C@@H]12`, for which the growth amounted to 1.14.

As to `Cn1c(-c2ccc(Br)cc2)c(O)c(=O)c2c(F)cccc21`, the growth is active: 0.0898. Then `CCCCCNS(=O)(=O)OCCCCC`, with 0.962. In the case of `CC(C)c1c2c(nn1-c1ccc(F)cc1)C(=O)NC2c1ccccc1` (stereo not given) it was 0.967; in that of `CC(C)C1=C[C@H]2[C@@H]3[C@@H](C(C(C)C)=CC(=O)[C@]3(C)O)[C@@H]1C(=O)[C@]2(C)O`, 1.12; in that of `Cc1ccc(C2C3=C(NCCN=C3C(C)C)C(=O)N2Cc2ccccc2)cc1` (stereo not given), 1.06. Then `COC(=O)C1=C(C)N(CC(C)C)C(=S)NC1c1cccc(F)c1` (stereo not given), with 0.877. On to `Cn1c(-c2ccc(Br)cc2)c(O)c(=O)c2ccccc21`, for which the growth came out at 0.819. In the case of `Cc1cc(C)c2c(c1)N=C1CCCCC12Cc1occc(=O)c1OS(C)(=O)=O` (stereo not given) it was 0.917; in that of `Cc1ccc(S(=O)(=O)Oc2c(C[C@@]3(C)C(c4ccccc4)=Nc4ccccc43)occc2=O)cc1`, 0.925; in that of `CC(=O)OC[C@H]1O[C@H](C#Cc2cccc(C)c2)C=C[C@H]1OC(C)=O`, 0.976.

For the molecule `C=CCC1=C(OC)[C@@]2(CC=C)C[C@H](Cc3ccccc3)[C@@](C(=O)c3ccccc3)(C1=O)C2=O`, the growth was determined as 0.951. Take `COCCN1C(=O)[C@H]2C[C@@]13O[C@H](C1CCCCC1)N=C3C[C@@H]1c3ccccc3C[C@]21C`: the growth turned out to be 0.96. In the case of `COc1ccc(N2C(=O)c3[nH]nc(-c4ccc5c(c4)CCC5)c3C2c2ccc(F)cc2)cc1` (stereo not given) it was 0.941; in that of `C#CCN(C)C(=O)c1nnc(C(=O)OC)c2c1c1ccccc1n2S(=O)(=O)c1ccc(C)cc1`, 1.03; in that of `COC(=O)C1=C(C)N(C)C(NCCN2CCOCC2)=NC1c1ccc(Cl)cc1` (stereo not given), 1.11. Turning to `COc1ccc(N2C(=O)C3=C(C(C(C)C)=NCCN3)C2c2ccc(Br)cc2)cc1` (stereo not given), the growth came to 0.901. Turning to `CC(C)C1=NCCN(C)C2=C1C(c1ccc3c(c1)OCO3)NC2=O` (stereo not given), the growth was found to be 0.918.

Consider `CS(=O)(=O)Oc1c(C[C@@]23COc4ccccc4C2=Nc2ccccc23)occc1=O`, for which the growth was determined as 1.08. In the case of `COc1ccc(OC)c(C(=O)c2c(O)cc(O)cc2OC)c1Br`, the growth was found to be 1.09. In the case of `COC(=O)N[C@@H]1[C@@H](C)[C@H](OC)[C@]23C=CC=C[C@H]2[C@]13CCN1CCCCC1` it was 1.04.

`O=C1Nc2cc(F)ccc2C1(c1cc2c(cc1O)OCO2)c1cc2c(cc1O)OCO2`: the growth worked out at 1.16. As for `COc1cc(O)cc2c1[C@]1(O)[C@H](O)[C@H](C(=O)N(C)OC)[C@@H](c3ccccc3)[C@]1(c1ccc(Br)cc1)O2`, the growth was determined as 0.87. Then `COc1ccc(O)c(C(=O)c2c(O)cc(C)cc2O)c1C`, with 1.03. Take `CCCCS(=O)(=O)N1CCCc2nc(-c3ccc(OC)cc3)ccc21`: the growth was 1.01. In the case of `CCNC(=O)OC[C@H]1O[C@H](C#Cc2ccc(C(C)(C)C)cc2)C=C[C@H]1OC(C)=O` it was 1.06. In the case of `CC1=C[C@@H](COc2cccc(F)c2)O[C@@]2(C1)C(=O)N(C)c1ccccc12` it was 0.946; in that of `CCO[C@H]1CCN(C(=O)c2c(O)cc(O)cc2Nc2ccnn2C)C1`, 1.04.
